PubChem BioAssay
Inconclusive means that the source gave no clear call. Such entries were picked first, then a sample of the others. Calls of active or inactive are those of the source.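 How the source made its calls, unless noted: active means thallium entry rate above the same plate's blocked-transporter control wells by more than 3 SD; inconclusive means the two repeat wells disagree; inactive means the rest.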

tested on: not listed separately; test: FluoZin2 fluorescence counter-screen of MLSMR hits on KCC2-expressing cells (AID 1714); conditions: HEK293-KCC2 + bumetanide/ouabain, at 10 µM, hits give high values;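 further: raw slope of fluorescence over initial fluorescence between 10 and 20 s after thallium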
Method in brief: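 material = KCC2-expressing HEK cells | reagent = thallium stimulus | compound dosing = 10 µM single dose | schedule = cells overnight at 37 °C, FluoZin2-AM dye loading 48 min | technique = kinetic FluoZin2 fluorescence, ex 480/em 540 nm | evaluation = normalized thallium flux slope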

| SMILES | normalized thallium flux |
| --- | --- |
| O=C(C1CCCN(S(=O)(=O)c2cccc3nonc23)C1)N1CCC(Cc2ccccc2)CC1 (stereo not given) | inconclusive: 0.00587 |
| COc1ccc(NC(=O)C(=O)N/N=C/c2cccnc2)c(OC)c1 | inconclusive: 0.00748 |
| O=C(c1cc2c(s1)-c1ccccc1S(=O)(=O)C2)N1CCN(Cc2ccccc2)CC1 | inactive: 0.00579 |
| O=C(Cn1nc(-c2ccccc2)ccc1=O)NCc1ccc2c(c1)OCO2 | inconclusive: 0.00649 |
| Cc1nc2ccc3nc(NC(=O)C4COc5ccccc5O4)sc3c2s1 (stereo not given) | active: 0.0129 |
| Cc1cc(Cl)ccc1OCC(=O)NNC(=O)c1cnccn1 | active: 0.0154 |
| O=C(c1ccc(-c2ccccc2)cc1)C1CCCN(Cc2ccncc2)C1 (stereo not given) | inactive: 0.00495 |
| O=C(NC1CCCC1)C(c1ccncc1)N(Cc1ccco1)C(=O)c1ccc(-c2ccccc2)[nH]1 (stereo not given) | inconclusive: 0.00584 |
| C=C(C)COc1ccc(-c2[nH]ncc2-c2ccccc2)c(O)c1 | inconclusive: 0.00761 |
| Cc1ccc(-n2[nH]c(C)c(/C=N/c3cccc(C)n3)c2=O)cc1 | active: 0.0128 |
| CCCCCCN1C(=O)C(O)=C(C(C)=O)C1c1ccc(Cl)cc1 (stereo not given) | inconclusive: 0.00811 |
| O=C(NCc1cccs1)c1nc2c(nnn2Cc2ccc(F)cc2)c(=O)[nH]1 | inconclusive: 0.00536 |
| Cc1ccc(NC2=C(N3CCOCC3)C(=O)c3ccccc3C2=O)cc1 | inactive: 0.005 |
| COc1ccc(C(=O)On2c(-c3ccc(Br)cc3)nc3ccccc3c2=O)cc1 | inconclusive: 0.00563 |
| S=c1[nH]nc(CNc2cccc(Cl)c2)o1 | inconclusive: 0.00524 |
| CCCCCCCCC(=O)N/N=C/c1cccc(Br)c1 | inconclusive: 0.00527 |
| O=C(CSc1nnc(-c2c[nH]c3ccccc23)o1)N1CCCCC1 | inconclusive: 0.00679 |
| COc1ccc(CNC(=S)N/N=C(/C)c2ccccc2)cc1 | active: 0.0231 |
| CN(c1ccc(OCc2nnc(-c3ccccc3)o2)cc1)S(=O)(=O)c1ccccc1 | inconclusive: 0.00241 |
| C=CCn1c(Cc2cccs2)nnc1SCC(=O)c1ccc2ccccc2c1 | inconclusive: 0.00739 |

| SMILES | normalized thallium flux |
| --- | --- |
| COC(=O)C1=C(Nc2ccccc2NS(=O)(=O)c2ccc(C(F)(F)F)cc2Cl)CSC1 | active: 0.0114 |
| O=C(NCCN1C(=O)C2C3C=CC(C3)C2C1=O)Nc1ccccc1O (stereo not given) | inconclusive: 0.00768 |
| C=CCNc1oc(COc2ccc(C)cc2)nc1C#N | inactive: 0.00531 |
| Cc1ccc(Cn2c(SCC(N)=O)nc3c2c(=O)n(C)c(=O)n3C)cc1 | inconclusive: 0.00577 |
| COCCNS(=O)(=O)c1ccc(-c2ccc(Cl)cc2)cc1 | inactive: 0.00525 |
| S=C(Nc1ccccn1)Nc1ccccc1Cl | active: 0.0138 |
| Cc1ccc(NC(=O)c2ccccc2NS(=O)(=O)c2ccc(Cl)s2)cc1 | inconclusive: 0.00558 |
| COc1ccc(C(=O)NC2CCCCC2)cc1S(=O)(=O)N1CCCC1 | inconclusive: 0.00692 |
| c1ccc(Cn2c(SCc3nc4ccccc4s3)nnc2-c2ccco2)cc1 | inconclusive: 0.0032 |
| COC(=O)c1sccc1NS(=O)(=O)c1ccc(OC)cc1 | active: 0.0126 |
| O=C(c1ccc(S(=O)(=O)c2cccc(Cl)c2)c([N+](=O)[O-])c1)N1CCN(c2ccccn2)CC1 | inactive: 0.00456 |
| COc1ccc(CNc2oc(COc3ccccc3)nc2C#N)cc1 | inconclusive: 0.00897 |
| CCCNC(=O)c1ccccc1NC(=O)COc1ccc(OC)cc1 | inconclusive: 0.00757 |
| S=c1[nH]nc(COc2ccc(Cl)cc2)o1 | inconclusive: 0.00766 |
| CCOC(=O)c1cnc(-c2cccc(OC)c2)[nH]c1=O | inconclusive: 0.0052 |
| CC(C)(C)NC(=O)C(c1ccncc1)N(Cc1ccco1)C(=O)c1ccc(-c2ccccc2)[nH]1 (stereo not given) | inactive: 0.00516 |
| N#CCSc1nnc(COc2cccc3ccccc23)n1-c1cccc(Cl)c1 | inconclusive: 0.00541 |
| Cc1ccc(S(=O)(=O)NCc2ccc(C(=O)N3CCN(Cc4ccccc4)CC3)cc2)cc1 | inconclusive: 0.00525 |
| Cc1cc(C(=O)NNC(=S)Nc2ccccc2C)cs1 | active: 0.0117 |
| c1ccc(-c2nc(Sc3ncnc4c3cnn4-c3ccccc3)n[nH]2)cc1 | inactive: 0.00493 |

target: Solute carrier family 12 member 5 (Homo sapiens) (UniProt Q9H2X9); test: modulation of KCC2 thallium flux in HEK cells – cell-based, ouabain, retest, confirmation (AID 1717;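 active means thallium flux slope beyond 3 SD from same-plate DMSO control mean in most replicates, usually higher, sometimes lower; inconclusive means repeat tests gave conflicting results; inactive means no significant difference from controls in most replicates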;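 further: slope of initial-normalized fluorescence between seconds 10 and 20 after thallium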); conditions: HEK293-KCC2, thallium flux FluoZin2 fluorescence, at 10 µM, bidirectional: low = inhibitor, high = activator
Chain of UniProt Q9H2X9 (Q9H2X9 whole entry, looked up): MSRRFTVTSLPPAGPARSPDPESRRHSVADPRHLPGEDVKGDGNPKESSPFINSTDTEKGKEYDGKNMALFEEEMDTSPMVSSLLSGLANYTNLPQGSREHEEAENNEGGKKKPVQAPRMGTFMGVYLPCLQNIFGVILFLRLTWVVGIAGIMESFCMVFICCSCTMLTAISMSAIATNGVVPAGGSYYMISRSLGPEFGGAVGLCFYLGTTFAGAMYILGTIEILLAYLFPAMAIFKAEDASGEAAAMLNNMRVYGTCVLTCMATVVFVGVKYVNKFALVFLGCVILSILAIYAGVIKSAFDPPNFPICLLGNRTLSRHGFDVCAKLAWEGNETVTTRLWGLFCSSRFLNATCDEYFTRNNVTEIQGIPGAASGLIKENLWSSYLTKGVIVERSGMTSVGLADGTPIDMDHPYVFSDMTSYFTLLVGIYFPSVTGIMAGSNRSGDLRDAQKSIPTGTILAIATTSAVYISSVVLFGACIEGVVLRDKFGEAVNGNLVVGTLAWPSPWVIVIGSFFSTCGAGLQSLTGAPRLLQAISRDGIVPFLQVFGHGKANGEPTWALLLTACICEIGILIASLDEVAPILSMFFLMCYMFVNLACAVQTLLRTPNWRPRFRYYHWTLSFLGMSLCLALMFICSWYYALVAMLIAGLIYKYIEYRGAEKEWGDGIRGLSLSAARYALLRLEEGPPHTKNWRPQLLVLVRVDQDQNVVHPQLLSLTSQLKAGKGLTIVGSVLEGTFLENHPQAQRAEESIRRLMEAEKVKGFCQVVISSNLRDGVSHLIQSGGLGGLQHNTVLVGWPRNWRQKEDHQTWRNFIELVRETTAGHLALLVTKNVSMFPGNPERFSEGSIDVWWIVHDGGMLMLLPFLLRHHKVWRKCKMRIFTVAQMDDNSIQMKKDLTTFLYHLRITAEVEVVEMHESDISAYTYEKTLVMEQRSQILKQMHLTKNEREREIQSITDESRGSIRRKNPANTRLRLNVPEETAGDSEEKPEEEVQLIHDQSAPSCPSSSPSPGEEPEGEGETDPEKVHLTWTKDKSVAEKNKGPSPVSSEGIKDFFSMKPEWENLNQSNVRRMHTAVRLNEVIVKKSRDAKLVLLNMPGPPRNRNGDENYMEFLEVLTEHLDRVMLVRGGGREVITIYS

| SMILES | raw Tl+ flux slope (below DMSO = inhibition, above = activation) |
| --- | --- |
| O=C(C1CCCN(S(=O)(=O)c2cccc3nonc23)C1)N1CCC(Cc2ccccc2)CC1 (stereo not given) | inconclusive: 0.0159 |
| COc1ccc(NC(=O)C(=O)N/N=C/c2cccnc2)c(OC)c1 | inactive: 0.0205 |
| O=C(c1cc2c(s1)-c1ccccc1S(=O)(=O)C2)N1CCN(Cc2ccccc2)CC1 | inconclusive: 0.0167 |
| O=C(Cn1nc(-c2ccccc2)ccc1=O)NCc1ccc2c(c1)OCO2 | inconclusive: 0.0161 |
| Cc1nc2ccc3nc(NC(=O)C4COc5ccccc5O4)sc3c2s1 (stereo not given) | inconclusive: 0.0233 |
| Cc1cc(Cl)ccc1OCC(=O)NNC(=O)c1cnccn1 | inconclusive: 0.0248 |
| O=C(c1ccc(-c2ccccc2)cc1)C1CCCN(Cc2ccncc2)C1 (stereo not given) | inconclusive: 0.0178 |
| O=C(NC1CCCC1)C(c1ccncc1)N(Cc1ccco1)C(=O)c1ccc(-c2ccccc2)[nH]1 (stereo not given) | inconclusive: 0.0175 |
| C=C(C)COc1ccc(-c2[nH]ncc2-c2ccccc2)c(O)c1 | inactive: 0.0231 |
| Cc1ccc(-n2[nH]c(C)c(/C=N/c3cccc(C)n3)c2=O)cc1 | inconclusive: 0.0191 |
| CCCCCCN1C(=O)C(O)=C(C(C)=O)C1c1ccc(Cl)cc1 (stereo not given) | active: 0.0141 |
| O=C(NCc1cccs1)c1nc2c(nnn2Cc2ccc(F)cc2)c(=O)[nH]1 | inconclusive: 0.0192 |
| Cc1ccc(NC2=C(N3CCOCC3)C(=O)c3ccccc3C2=O)cc1 | inconclusive: 0.018 |
| COc1ccc(C(=O)On2c(-c3ccc(Br)cc3)nc3ccccc3c2=O)cc1 | inconclusive: 0.0237 |
| S=c1[nH]nc(CNc2cccc(Cl)c2)o1 | active: 0.0143 |
| CCCCCCCCC(=O)N/N=C/c1cccc(Br)c1 | inactive: 0.0193 |
| O=C(CSc1nnc(-c2c[nH]c3ccccc23)o1)N1CCCCC1 | active: 0.0205 |
| COc1ccc(CNC(=S)N/N=C(/C)c2ccccc2)cc1 | inconclusive: 0.0265 |
| CN(c1ccc(OCc2nnc(-c3ccccc3)o2)cc1)S(=O)(=O)c1ccccc1 | inactive: 0.0144 |
| C=CCn1c(Cc2cccs2)nnc1SCC(=O)c1ccc2ccccc2c1 | active: 0.0143 |

| SMILES | raw Tl+ flux slope (below DMSO = inhibition, above = activation) |
| --- | --- |
| COC(=O)C1=C(Nc2ccccc2NS(=O)(=O)c2ccc(C(F)(F)F)cc2Cl)CSC1 | inconclusive: 0.0213 |
| O=C(NCCN1C(=O)C2C3C=CC(C3)C2C1=O)Nc1ccccc1O (stereo not given) | inactive: 0.0213 |
| C=CCNc1oc(COc2ccc(C)cc2)nc1C#N | inconclusive: 0.0178 |
| Cc1ccc(Cn2c(SCC(N)=O)nc3c2c(=O)n(C)c(=O)n3C)cc1 | inactive: 0.0186 |
| COCCNS(=O)(=O)c1ccc(-c2ccc(Cl)cc2)cc1 | inconclusive: 0.0183 |
| S=C(Nc1ccccn1)Nc1ccccc1Cl | inconclusive: 0.0224 |
| Cc1ccc(NC(=O)c2ccccc2NS(=O)(=O)c2ccc(Cl)s2)cc1 | inconclusive: 0.0172 |
| COc1ccc(C(=O)NC2CCCCC2)cc1S(=O)(=O)N1CCCC1 | inactive: 0.0227 |
| c1ccc(Cn2c(SCc3nc4ccccc4s3)nnc2-c2ccco2)cc1 | inconclusive: 0.0166 |
| COC(=O)c1sccc1NS(=O)(=O)c1ccc(OC)cc1 | inconclusive: 0.0237 |
| O=C(c1ccc(S(=O)(=O)c2cccc(Cl)c2)c([N+](=O)[O-])c1)N1CCN(c2ccccn2)CC1 | inconclusive: 0.017 |
| COc1ccc(CNc2oc(COc3ccccc3)nc2C#N)cc1 | inconclusive: 0.0169 |
| CCCNC(=O)c1ccccc1NC(=O)COc1ccc(OC)cc1 | inactive: 0.0212 |
| S=c1[nH]nc(COc2ccc(Cl)cc2)o1 | inconclusive: 0.0148 |
| CCOC(=O)c1cnc(-c2cccc(OC)c2)[nH]c1=O | inactive: 0.0194 |
| CC(C)(C)NC(=O)C(c1ccncc1)N(Cc1ccco1)C(=O)c1ccc(-c2ccccc2)[nH]1 (stereo not given) | inconclusive: 0.0152 |
| N#CCSc1nnc(COc2cccc3ccccc23)n1-c1cccc(Cl)c1 | inactive: 0.0202 |
| Cc1ccc(S(=O)(=O)NCc2ccc(C(=O)N3CCN(Cc4ccccc4)CC3)cc2)cc1 | inconclusive: 0.017 |
| Cc1cc(C(=O)NNC(=S)Nc2ccccc2C)cs1 | inactive: 0.0239 |
| c1ccc(-c2nc(Sc3ncnc4c3cnn4-c3ccccc3)n[nH]2)cc1 | inconclusive: 0.0163 |
